Results: the RNAGym collection of RNA variant scans (doi:10.1073/pnas.2313332121)
Variants at the floor of the assay are shown more often than the library holds them.

B1: TPR 5TU (parent)
chain: GGAUCUUCUCGAUCUAACAAAAAAGACAAAUCUGCCACAAAGCUUGAGAGCAUCUUCGGAUGCAGAGGCGGCAGCCUUCGGUGGCGCGAUAGCGCCAACGUUCUCAACUAUGACACGCAAAACGCGUGCUCCGUUGAAUGGAGUUUAUCAUG

Variants of: B1
Test: polymerase ribozyme fitness, log enrichment relative to wild type (log ratio); higher = more active; in vitro selection for triplet polymerase activity
How it was run: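 Mutant libraries of each subunit of a heterodimeric triplet polymerase ribozyme were built by PCR and transcribed. Each library went through one round of in vitro selection in triplicate: annealing with biotinylated primer, partner subunit and triplets, frozen incubation at −7 °C, gel excision of extended constructs, streptavidin-bead capture and RT-PCR. Input and output libraries were Illumina-sequenced; only genotypes with ≥10 input reads and ≥1 read per output were kept. Fitness is log2(genotype enrichment/wild-type enrichment), using inverse-variance-weighted replicate averages.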

Variant	polymerase ribozyme fitness (log ratio)
A3U A24U A66U C93G A107C	≤ -4.2
A3U A49C G84C U90G C103G A115U	≤ -4.2
A3C C10G G62U G68C C87U A107C C123U G128A A137C U139C	≤ -4.2
A3U C57U U61A A66G A91U	≤ -4.2
A3C U33G A47U A49G C75A C76U A91U C93G A98U C114A G136C	≤ -4.2
U4A C35U C79A G81U C93A U102A U127A	≤ -4.2
U4A A23U A29U U53A G59A A60G C87U G126U U134C U148G	≤ -4.2
A3C A26G A30C U56A G58A C132U U134G	≤ -4.2
A3G C8G A73G C85U A91C G94U A138C	≤ -4.2
A3U C14U C96A G133C A137C	≤ -4.2
A3G C5U C14U U15C U55A G62A G92A U101C G128C	≤ -4.2
A3G C5A A19C A22C C57G G83C G92A C108G	≤ -4.2
A3U A16G U31C C69G U82G G84C A121C A142C G143A	≤ -4.2
A3U C116A U144G U151G	≤ -4.2
U4A C8A A17G C35U A49U C69U C75A G94A	≤ -4.2
A3G C51U G86U C108G C125A	≤ -4.2
A3U U44A G133C	≤ -4.2
A3U C57A G58A G68U A119G G141U	≤ -4.2
A3G C27U G74A C85A A122U U135G	≤ -4.2
A3U C43A U45A A47U G59C C125U U130C A137G	≤ -4.2
A3U C38G G50A A64U G94C A110U	≤ -4.2

Variant	polymerase ribozyme fitness (log ratio)
A3U C14A U31C A66U C79G G80U A113U	≤ -4.2
A3G C10U C32U A37G C76U A91C G140U	≤ -4.2
U4A A19C	0.332
A3G A24U U55A C85A	-2.17
A3U A41U	-1.29
A3G C5G C27U U31C U44A G58C C75A C87U A91C G117A	≤ -4.2
A3U A52U G84A A107G C123U A142C	≤ -4.2
A3G C18U A49C C57U C85G G143U	≤ -4.2
A3U A29U G74A C85A G117U A119C G141U	≤ -4.2
U4A A24G C87U A89G G141U U145G	≤ -4.2
A3G A16C A26C U45A G59C G86C U130G U145G	≤ -4.2
U4A G11U A16G A29U A39U A49G G94A C116U C125A A150C	≤ -4.2
A3C A30U C95G U127G U135C	≤ -4.2
U4A A20C U56G A91U G124A	≤ -4.2
U4A C8G U13G A24C C96U	≤ -4.2
A3U C32U C54U G67U G86U	≤ -4.2
U4A G46U A49C G83C A91U G94U G117U	≤ -4.2
A3G C14G C93G G143C	≤ -4.2
A3C U4G C103A U139A A142U	≤ -4.2
U4A C93A	-1.38
A3U A91C C93A U139C U151G	≤ -4.2

Variant	polymerase ribozyme fitness (log ratio)
A3G G42C U44G U56G G83A U145C C149G	≤ -4.2
A3U A26G A28U A29C G58U G88C	≤ -4.2
A3U G11A C14U G46C C76U C85A	≤ -4.2
U4A C76G A91U A115U	≤ -4.2
A3C C35G A52U U56A G83U C96U	≤ -4.2
A3U U6G A30C U53A G92A C125A C132G	≤ -4.2
A3U C14G C43U U44G C72A C93A C103A A142U C149G	≤ -4.2
A3U C35U A52U C87U U134G	≤ -4.2
A3G C5U C8G C93A A113U	≤ -4.2
U4A C43U C54A U78C U109C	≤ -4.2
A3G U31G A40C G50A C54G G58A G71A	≤ -4.2
A3C G141U	0.471
A3G C8G A22U A26G G46C C96U	≤ -4.2
A3U C5G A21U C85U A122G G140U U144G	≤ -4.2
A3G A19G C27G G48C	≤ -4.2
A3C A16G C57U G88A C95A A97C U104G G143A	≤ -4.2
U4A G11A C18U A23C A40C U55C G71A U146C	≤ -4.2
A3U A37U U90G A91G A119U	≤ -4.2
A3C G88A U151C	≤ -4.2
U4A C10U A26U U31G A39G C57A C85A U90G A113C	≤ -4.2
A3U A26C G81A C87U G88C G124C G136U G140C	≤ -4.2

Variant	polymerase ribozyme fitness (log ratio)
A3U C38U C96U G126U G143A	≤ -4.2
A3G A19G A26G G58C G70C C76G U78C C108U A119U U145G	≤ -4.2
A3U C36A U53C U78C C95G A115U A137C	≤ -4.2
U4A G48C C63U C79G C85U A98U C105U U111G	≤ -4.2
A3C C10G A16G C57A G86C A91C G128C G141C	≤ -4.2
A3C A60U C87U C114G A121C	≤ -4.2
A3U A30U U33C A41G C57U A60U C87U C118A C132G A150C	≤ -4.2
U4A A22U C93A U102A A137C	≤ -4.2
A3G A30C G34A G48U G62U C87A A120U U127A U144A	≤ -4.2
A3C A16G A22U C27A U53A G59A G92U	≤ -4.2
U4A A39C A41U G94A U102A C125G A137C	≤ -4.2
A3U A49G G50A C96U G141A	-3.63
A3G A73U G83U A137U	≤ -4.2
A3U A16G C38G C43G G58U G59A C118U G124C	≤ -4.2
A3C G68U C93A	≤ -4.2
A3U A23G A89U A98U	≤ -4.2
A3G A12G A17G C54U C76A G86A C105G C108A A113U C149A	≤ -4.2
A3U C5A C54U C96U C114U C132A A142C	≤ -4.2
A3U A24G A26C A60G G83A	≤ -4.2
A3U A66U C85A A150U	≤ -4.2
A3C U9C C35A C76A G80C G86U G124U	≤ -4.2
